Here are results for two molecules from publication PMC5362947.

Protein sequences, listed by entry. Tags and fused reporters are not part of them. Residues count along the entry.
UniProt P56726, residues 33-793: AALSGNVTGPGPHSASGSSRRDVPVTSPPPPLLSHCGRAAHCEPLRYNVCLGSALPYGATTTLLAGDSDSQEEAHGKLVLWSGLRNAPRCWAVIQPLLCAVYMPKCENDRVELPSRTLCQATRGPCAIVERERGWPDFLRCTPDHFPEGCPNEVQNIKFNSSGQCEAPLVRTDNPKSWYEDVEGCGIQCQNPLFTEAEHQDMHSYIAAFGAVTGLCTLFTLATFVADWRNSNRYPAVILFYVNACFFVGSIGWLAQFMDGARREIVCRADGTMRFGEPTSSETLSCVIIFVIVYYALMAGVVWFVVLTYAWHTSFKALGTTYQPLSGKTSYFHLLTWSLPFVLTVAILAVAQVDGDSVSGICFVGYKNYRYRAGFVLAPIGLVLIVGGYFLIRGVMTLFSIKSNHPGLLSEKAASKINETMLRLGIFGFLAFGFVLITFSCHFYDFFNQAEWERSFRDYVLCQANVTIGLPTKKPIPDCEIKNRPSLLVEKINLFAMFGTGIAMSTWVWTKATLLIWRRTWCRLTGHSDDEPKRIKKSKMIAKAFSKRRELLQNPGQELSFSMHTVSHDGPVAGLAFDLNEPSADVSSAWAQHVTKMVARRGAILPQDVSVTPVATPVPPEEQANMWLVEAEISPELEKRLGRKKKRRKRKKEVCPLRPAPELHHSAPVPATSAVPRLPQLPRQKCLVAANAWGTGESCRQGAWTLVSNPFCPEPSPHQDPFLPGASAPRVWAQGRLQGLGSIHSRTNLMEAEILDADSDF

No constants are given. Whether binding was seen depends on the method and setting. In cells and extracts the contact can be indirect. Some entries that bind do so weakly or less than the wild type. Tags and fused reporters may be left off the sequences shown.

The target in test [1] is T1, GST-EHD1-438-534 (UniProt Q9H4M9).
T1 sequence: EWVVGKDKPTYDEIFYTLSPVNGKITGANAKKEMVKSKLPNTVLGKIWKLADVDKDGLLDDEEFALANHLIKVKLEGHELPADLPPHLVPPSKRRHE
The experiment in a line: pull-down; 50 μg GST fusion protein non-covalently bound to Glutathione-Sepharose beads; 5 mg lysate protein of NIH-3T3 cells (serum-deprived 24 hours, then SAG 24 hours); anti-smoothened immunoblotting; only the target purified. A general note: In western blotting, separated proteins are transferred to a membrane and probed.

In test [2] the target is T2, GST-EHD1-399-534 (UniProt Q9H4M9).
T2 sequence: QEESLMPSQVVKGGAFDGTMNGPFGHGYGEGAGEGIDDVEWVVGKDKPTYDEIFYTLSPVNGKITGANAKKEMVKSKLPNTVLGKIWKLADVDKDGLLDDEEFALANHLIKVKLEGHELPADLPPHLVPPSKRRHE
Described as above.

For test [3], the target named is T1, GST-EHD1-438-534. The experiment in a line: pull-down; 50 μg GST fusion protein non-covalently bound to Glutathione-Sepharose beads; 2 mg lysate protein of HEK-293T cells transiently transfected with Rabenosyn 5-GFP; anti-GFP immunoblotting; only the target purified.
Test [4] deals with T2, GST-EHD1-399-534. The test is described as above.
Test [5] deals with T3, GST-EHD1-399-534-W485A mutant (UniProt Q9H4M9).
T3 sequence: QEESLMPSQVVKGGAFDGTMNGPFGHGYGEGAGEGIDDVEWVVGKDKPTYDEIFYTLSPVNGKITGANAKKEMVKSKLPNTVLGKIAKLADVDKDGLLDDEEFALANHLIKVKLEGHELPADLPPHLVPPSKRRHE
The description is as above.

For “Smoothened (from UniProt P56726 33-793) (receptor)”, the binding entry with GST-EHD1-438-534 [1] is given as “no binding”; with GST-EHD1-399-534 [2] it was “binds”.

B1: human Rabenosyn 5-GFP (protein, UniProt Q9H1K0 1-784)
chain: MASLDDPGEVREGFLCPLCLKDLQSFYQLHSHYEEEHSGEDRDVKGQIKSLVQKAKKAKDRLLKREGDDRAESGTQGYESFSYGGVDPYMWEPQELGAVRSHLSDFKKHRAARIDHYVVEVNKLIIRLEKLTAFDRTNTESAKIRAIEKSVVPWVNDQDVPFCPDCGNKFSIRNRRHHCRLCGSIMCKKCMELISLPLANKLTSASKESLSTHTSPSQSPNSVHGSRRGSISSMSSVSSVLDEKDDDRIRCCTHCKDTLLKREQQIDEKEHTPDIVKLYEKLRLCMEKVDQKAPEYIRMAASLNAGETTYSLEHASDLRVEVQKVYELIDALSKKILTLGLNQDPPPHPSNLRLQRMIRYSATLFVQEKLLGLMSLPTKEQFEELKKKRKEEMERKRAVERQAALESQRRLEERQSGLASRAANGEVASLRRGPAPLRKAEGWLPLSGGQGQSEDSDPLLQQIHNITSFIRQAKAAGRMDEVRTLQENLRQLQDEYDQQQTEKAIELSRRQAEEEDLQREQLQMLRERELEREREQFRVASLHTRTRSLDFREIGPFQLEPSREPRTHLAYALDLGSSPVPSSTAPKTPSLSSTQPTRVWSGPPAVGQERLPQSSMPQQHEGPSLNPFDEEDLSSPMEEATTGPPAAGVSLDPSARILKEYNPFEEEDEEEEAVAGNPFIQPDSPAPNPFSEEDEHPQQRLSSPLVPGNPFEEPTCINPFEMDSDSGPEAEEPIEEELLLQQIDNIKAYIFDAKQCGRLDEVEVLTENLRELKHTLAKQKGGTD
Take B1: the binding entry in the test with GST-EHD1-438-534 [3] was “binds”; with GST-EHD1-399-534 [4], “binds”; in test [5], “no binding”.
